In PubChem BioAssay AID1347165 (National Center for Advancing Translational Sciences (NCATS), 2019):
About 5,700 (2.6%) of roughly 220,000 compounds were called active. The shares of active, inactive and inconclusive entries below differ from those in the screen. Calls follow the shape of the dose curve; as a rule, active = well fitted inhibition curve with a large enough effect; inconclusive = small, poorly fitted or top-dose-only effect; inactive = no such curve, though single readings can be large or run the other way. Potencies of inconclusive entries are doubtful fits and often do not repeat.
Also: nearly all actives have a fitted effect of over 70% in size.
For activity change, negative = inhibition in this document: 0% is about no effect.
Potency is read from the fitted curve at half-maximal effect; tags tell the direction and shape of the fitted curve.

These compounds were tested against Lysine-specific demethylase 5B (Homo sapiens) (UniProt Q9UGL1) (assay: Primary screen for KDM5B Histone Demethylases FDH-coupled qHTS). Details: FDH-coupled NADH fluorescence (FDH is formaldehyde dehydrogenase); activity change, negative = inhibition: at 57.7 µM (top of the series) unless noted.
Sequence of UniProt Q9UGL1 (Q9UGL1 whole entry, looked up): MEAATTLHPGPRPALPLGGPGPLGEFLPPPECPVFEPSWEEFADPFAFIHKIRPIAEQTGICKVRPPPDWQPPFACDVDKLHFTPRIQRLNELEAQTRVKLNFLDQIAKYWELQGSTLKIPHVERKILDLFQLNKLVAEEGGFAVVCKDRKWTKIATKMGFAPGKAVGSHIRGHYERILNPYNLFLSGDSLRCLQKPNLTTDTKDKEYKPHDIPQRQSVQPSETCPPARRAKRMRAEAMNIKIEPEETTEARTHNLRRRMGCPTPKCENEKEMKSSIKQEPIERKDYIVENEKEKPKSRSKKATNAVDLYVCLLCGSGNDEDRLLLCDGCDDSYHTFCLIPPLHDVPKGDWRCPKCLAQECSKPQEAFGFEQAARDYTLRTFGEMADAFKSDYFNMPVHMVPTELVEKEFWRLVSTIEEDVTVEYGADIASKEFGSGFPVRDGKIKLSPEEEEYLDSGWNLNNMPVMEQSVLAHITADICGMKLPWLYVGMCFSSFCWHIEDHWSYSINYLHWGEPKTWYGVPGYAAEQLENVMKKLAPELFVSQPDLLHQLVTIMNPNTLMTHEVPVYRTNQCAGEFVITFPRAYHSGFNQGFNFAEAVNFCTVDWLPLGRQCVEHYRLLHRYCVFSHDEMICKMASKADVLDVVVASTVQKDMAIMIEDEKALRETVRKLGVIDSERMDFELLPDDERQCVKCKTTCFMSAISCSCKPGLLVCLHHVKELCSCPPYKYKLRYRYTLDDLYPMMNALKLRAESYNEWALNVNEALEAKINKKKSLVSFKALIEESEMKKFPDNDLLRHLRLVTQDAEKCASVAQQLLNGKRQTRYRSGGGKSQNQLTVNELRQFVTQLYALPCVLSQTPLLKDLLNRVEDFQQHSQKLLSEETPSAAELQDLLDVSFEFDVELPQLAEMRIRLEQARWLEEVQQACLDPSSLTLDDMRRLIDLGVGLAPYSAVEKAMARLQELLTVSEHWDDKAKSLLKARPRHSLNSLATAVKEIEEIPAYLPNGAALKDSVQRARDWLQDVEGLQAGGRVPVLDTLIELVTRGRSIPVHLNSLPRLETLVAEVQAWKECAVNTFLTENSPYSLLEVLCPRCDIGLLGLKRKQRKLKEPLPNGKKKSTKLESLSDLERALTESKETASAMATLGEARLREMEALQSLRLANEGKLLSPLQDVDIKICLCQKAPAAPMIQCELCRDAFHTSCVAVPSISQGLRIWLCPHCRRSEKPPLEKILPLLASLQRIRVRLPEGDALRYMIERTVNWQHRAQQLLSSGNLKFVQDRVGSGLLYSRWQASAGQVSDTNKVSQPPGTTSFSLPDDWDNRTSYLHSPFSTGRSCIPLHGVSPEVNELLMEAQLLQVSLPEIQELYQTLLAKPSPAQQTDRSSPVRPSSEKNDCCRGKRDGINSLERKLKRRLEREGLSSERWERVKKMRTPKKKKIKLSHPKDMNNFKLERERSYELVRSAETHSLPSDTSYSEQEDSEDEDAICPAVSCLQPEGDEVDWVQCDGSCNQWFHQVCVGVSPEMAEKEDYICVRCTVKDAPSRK
Outline: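 Measured: NADH fluorescence change, 30 min, RT. System: KDM5BΔAP 200 nM final, H3K4me3 peptide, α-KG, Fe(II), ascorbate, NAD⁺ plus FDH, pH 7.5 HEPES. Compounds: titrated, 10 min pre-incubation with enzyme.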
In the case of `CN1CC(=O)N(C2CNC2)Cc2c(NC3CCCC3)ncnc21`, the “activity change, negative = inhibition” value is reported as inactive: -25.1% [at 149 µM]. For `CC(C)CCNc1nc(Nc2ccccc2)c2cnn(C)c2n1`, the Potency was inconclusive: 25.1 µM [inhibitor, partial curve, poor fit]. `COc1cccc(CNC(=O)N2c3ccccc3CC2c2nc(C3CC3)no2)c1` (stereo unspecified) was tested, and the Potency was inconclusive: 28.2 µM [inhibitor, partial curve]. With `COc1ccc(C(=O)N2N=C(c3ccco3)CC2c2ccc3nccnc3c2)cc1` (stereo unspecified) the “activity change, negative = inhibition” value was inactive: -2.4%. In the case of `COCCn1c(COc2ccccc2-c2ccccc2)nnc1SC(F)F`, the “activity change, negative = inhibition” value is reported as inactive: 16.1%. In the case of `COc1ncc(-c2nccc3c(=O)cc(N4CCN(C)CC4)oc23)cn1`, the Potency is reported as active: 35.5 µM. For `COc1cccc(-c2cc3nc(-c4ccccc4)cc(=O)n3[nH]2)c1`, the Potency was inconclusive: 25.1 µM [inhibitor, partial curve, poor fit]. `O=C(CC[C@@H]1CNC(=O)[C@@H]2C[C@H](NCc3ccc(F)cc3)CN12)NCc1ccccc1` was tested, and the Potency was inconclusive: 28.2 µM [inhibitor, single point]. For `Cc1oc(-c2cccs2)nc1CN1CCCC(c2ccn[nH]2)C1` (stereo unspecified), the Potency was active: 28.2 µM. With `CCS(=O)(=O)c1ncc(N(Cc2ccccc2)Cc2ccco2)c(C(=O)Nc2ccccc2C)n1` the Potency was inconclusive: 17.8 µM [inhibitor, partial curve, poor fit]. For `CCCS(=O)(=O)N1CCN(c2ccc(N3CCN(CC)CC3)nn2)CC1`, the Potency was inconclusive: 25.1 µM [inhibitor, partial curve, poor fit]. In the case of `COc1cccc(C(=O)N[C@@H]2CN(S(C)(=O)=O)C[C@H]2CN(C)C)c1`, the “activity change, negative = inhibition” value is reported as inactive: -5.15%. For `Cc1ccn2cc(C(=O)N3CCC(n4nccc4NC(=O)CC(C)C)CC3)nc2c1`, the Potency was inconclusive: 15.8 µM [inhibitor, partial curve]. `O=C(c1cc2ccccc2[nH]1)N1CCC(C(=O)N2CCCCCC2)CC1` was tested, and the “activity change, negative = inhibition” value was inactive: -4.45%. `Cc1ccc(C)c(NC(=O)c2nc(S(=O)(=O)Cc3ccc(F)cc3)ncc2Cl)c1` was tested, and the Potency was inconclusive: 17.8 µM [inhibitor, partial curve, poor fit]. For `Cc1ccc(C(=O)Nc2cc(-c3cn4cccnc4n3)ccc2C)cc1C`, the Potency was inconclusive: 3.16 µM [inhibitor, full curve, poor fit]. `Cn1cccc1-c1cc2n(n1)CCC(=O)N2CCCC(=O)NCc1cccc(Cl)c1` was tested, and the Potency was inconclusive: 28.2 µM [inhibitor, single point]. For `CSc1ccc(/C=C2\CS(=O)(=O)c3c(F)cccc3C2=O)cc1`, the Potency was inconclusive: 14.1 µM [inhibitor, partial curve, poor fit]. With `Cc1ccc(CC(=O)NC2CCN(c3cc(-c4ccccc4)[nH]n3)C2)cc1` (stereo unspecified) the Potency was inconclusive: 7.94 µM [inhibitor, full curve, poor fit]. `Cn1nccc1C(=O)N1CCC(Nc2cccnc2)C1` (stereo unspecified) was tested, and the Potency was inconclusive: 10 µM [inhibitor, partial curve]. In the case of `COc1ncccc1-c1cnc2n[nH]c(-c3ccccc3)c2n1`, the Potency is reported as active: 35.5 µM. With `O=C(NCc1cccc(Cl)c1)c1cnc(N2CCOCC2)c2ccccc12` the Potency was inconclusive: 31.6 µM [inhibitor, single point]. `CCOC(=O)N1CCN(C(=O)CNC(=O)c2cc3cc(OC)ccc3n2C)CC1` was tested, and the Potency was inconclusive: 28.2 µM [inhibitor, partial curve, poor fit]. In the case of `Cc1nc2c3c(C)c(C)n(Cc4cccnc4)c3ncn2n1`, the Potency is reported as inconclusive: 20 µM [inhibitor, partial curve, poor fit]. In the case of `Cc1ccncc1C(=O)NCC(=O)N1CCCCCNC(=O)CC1c1ccccc1` (stereo unspecified), the Potency is reported as inconclusive: 35.5 µM [inhibitor, single point]. With `COc1ccc(OC)c(CCNC(=O)c2ccc(N3C(=O)CCS3(=O)=O)cc2Cl)c1` the “activity change, negative = inhibition” value was inactive: 1.95%. For `COCCCNC(=O)CN(C)C(=O)CCc1ncc(-c2ccccc2)o1`, the “activity change, negative = inhibition” value was inactive: 22.5%. With `Cc1nn(-c2ncnc3nc[nH]c23)c2c1C(c1ccc(F)c(F)c1)CC(=O)N2` (stereo unspecified) the “activity change, negative = inhibition” value was inactive: 9.05%. In the case of `Cc1cc(NC(=O)C(C)SCC(=O)Nc2ccccc2)no1` (stereo unspecified), the “activity change, negative = inhibition” value is reported as inactive: 14.4%. For `Cc1noc(-c2ccc3c(c2)OCO3)c1C(=O)NCCSCc1ccccc1`, the Potency was active: 31.6 µM. For `CCCOc1ccc(NC(=O)COc2ccccc2OC)c2cccnc12`, the Potency was inconclusive: 39.8 µM [inhibitor, single point]. `O=C(CC1SC(c2cc3ccccc3oc2=O)=NC1=O)Nc1ccc2ccccc2c1` (stereo unspecified) was tested, and the Potency was inconclusive: 22.4 µM [inhibitor, single point]. With `N#CC1CCN(C(=O)c2nc(-c3cccc(C(F)(F)F)c3)c3ccccn23)CC1` the Potency was active: 14.1 µM. `COc1ccc(NC(=O)c2ccc(NC(=O)CCS(=O)(=O)c3cccs3)cc2)cc1Cl` was tested, and the Potency was inconclusive: 31.6 µM [inhibitor, partial curve, poor fit]. In the case of `COc1ccc(-c2nc(C)nc3c2CCN(Cc2cncs2)CC3)cc1`, the Potency is reported as inconclusive: 14.1 µM [inhibitor, single point]. With `O=C(Cn1c(=O)oc2ccccc21)N1CCC2(CC1)NCCc1c2[nH]c2ccccc12` the “activity change, negative = inhibition” value was inactive: -4.8%. In the case of `CN(C)Cc1cn2c(=O)n(C)cc(-c3ccccc3Oc3ccccc3)c2n1`, the “activity change, negative = inhibition” value is reported as inactive: -2.83% [at 86.2 µM]. `CN(CCCc1[nH]nc(N)c1C#N)c1nc(-c2ccncc2)nc2ccccc12` was tested, and the “activity change, negative = inhibition” value was inactive: 15%. For `C(=N\Nc1ccccc1)/c1ccc(OCc2ccccc2)cc1`, the Potency was inconclusive: 22.4 µM [inhibitor, partial curve, poor fit]. `Cc1cc(C)cc(NC(=O)CCn2cnc3ccccc3c2=O)c1` was tested, and the activity change, negative = inhibition was inconclusive: -128% [inhibitor] [at 11.5 µM]. For `CC(C)c1ccc(C2NC(=O)c3c(sc4c3CCN(C)C4)N2)cc1` (stereo unspecified), the Potency was inconclusive: 25.1 µM [inhibitor, partial curve, poor fit]. For `O=C(COC(=O)CCC(=O)c1ccc(Cl)cc1)NC1CCCCCCC1`, the “activity change, negative = inhibition” value was inactive: 21%. `CSc1ccccc1NC(=O)C1CC=CCC1` (stereo unspecified) was tested, and the “activity change, negative = inhibition” value was inactive: 8.69%. `CC(=O)N1CCN(C(=O)Cn2ccc3c(Br)cccc32)CC1` was tested, and the “activity change, negative = inhibition” value was inactive: -1.07%. With `CC(=O)N1CCCC1c1nc2ccccc2n1Cc1cccc(C)c1` (stereo unspecified) the “activity change, negative = inhibition” value was inactive: 8.63%. In the case of `Cc1cccc(CN2CCC3(CC2)CC2C(=O)NCCN2C3)c1` (stereo unspecified), the Potency is reported as inconclusive: 12.6 µM [inhibitor, partial curve].
